# Test results as given in paper PMC12136788.
# Some of the results follow.
# T1: UNK ZnF1-6 (called full-length) (human, UniProt Q9C0B0 30-357)
# T1 sequence: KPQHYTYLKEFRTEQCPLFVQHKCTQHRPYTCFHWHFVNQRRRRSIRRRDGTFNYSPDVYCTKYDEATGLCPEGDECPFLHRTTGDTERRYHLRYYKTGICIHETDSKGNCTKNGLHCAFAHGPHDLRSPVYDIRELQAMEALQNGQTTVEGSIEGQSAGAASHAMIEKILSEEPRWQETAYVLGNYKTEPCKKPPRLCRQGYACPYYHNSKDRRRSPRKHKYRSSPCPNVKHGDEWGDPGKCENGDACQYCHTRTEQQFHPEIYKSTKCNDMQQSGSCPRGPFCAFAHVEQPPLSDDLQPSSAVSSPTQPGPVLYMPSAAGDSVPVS
# B1: chr17:41502224:41502594:-|three_prime_utr|ENSG00000171401|control|control|control (ssRNA)
# RNA: GGGAGUUCUACAGUCCGACGAUCCACGUCUGGAGCAGGAGAUCGCCACCUACCGCAGCCUGCUCGAGGGCCAGGACGCCAAGUAGGUCCUCUCCAGCCUCUUUCUUAGGAUAGUGACUGCAGGACCCGUGGGUGUCAGAGCAGCAACAGAGGAUUGAGCAUCA
# B2: chr3:111884732:111884833:+|CDS|ENSG00000144824|msi1|total|mutant (ssRNA)
# RNA: GGGAGUUCUACAGUCCGACGAUCCUUCAACCCAAGUUAACCCGACACAAGGAGCUUGCAUCUGAAAACAUCAAUUUGAGAACCCGGAAGUACUCCAGCAGCAGCCUGAGUCACAUGGGAGCCUACAGCCGAUCACUUCCCAGGCAACAGAGGAUUGAGCAUCA
# B3: ENSG00000110497:stop:overlap|stop_codon|ENSG00000110497|stop_codon|NA|stop_codon (ssRNA)
# RNA: GGGAGUUCUACAGUCCGACGAUCUGGAUGGUGGCAGCAGCAGGGGGGACGCUGCAGGCCCUAGGGGAGAACCACGGAACAGGUAGAGACAAACGUUGCACUGGUGCCUCCCCUCGAACCGCCAAGCAGAAACCGGACCUCACACAACAGAGGAUUGAGCAUCA
# B4: chr3:58172026:58172127:+|3pUTR|ENSG00000136068|msi1|FALSE|unique (ssRNA)
# RNA: GGGAGUUCUACAGUCCGACGAUCGGCAGACCUUUAGGUUUUGCUGCUUAGUCCUGAGGAAGUGGCCACUCUUGUGGCAGGUGUAGUAUCUGGGGCGAGUGUUGGGGGUAAAAGCCCACCCUACAGAAAGUGGAACAGCCCGGACAACAGAGGAUUGAGCAUCA
# B5: chr1:54779711:54781242:-|three_prime_utr|ENSG00000006555|control|control|control (ssRNA)
# RNA: GGGAGUUCUACAGUCCGACGAUCGGGACCCCGCCCAGGCCCCGCCCAGCUGAUGGGACCAGGUCCGGAUGGACUCCCUGCCUUAGGCUGACCUGGGAGCGGAGCCAGUUCGAUUCUUGGUCGGGAAUUGUGAAUGGGGAUGUUCAACAGAGGAUUGAGCAUCA
# B6: chr10:91942452:91942553:+|CDS|ENSG00000095564|unk|total|mutant (ssRNA)
# RNA: GGGAGUUCUACAGUCCGACGAUCAGUUCUAUGGAAGAUUCACCUACUACAGAGCGAUUGAAUUUUGACAGAUUUGAUAUAUGCCGAUUGUUACAACAUGGUGCAUCACUCCUGGGAUCUGCUGGUGCCGAAUUUGAAGUCCAACAACAGAGGAUUGAGCAUCA
# B7: chr8:23844609:23844711:-|3pUTR|ENSG00000159167|msi1|total|mutant (ssRNA)
# RNA: GGGAGUUCUACAGUCCGACGAUCUUCCGGGGUGUUGACACACCAGUUUUGAGUGUACUGUGCCUGGUUUGAUUUUUUUAAAGCCGUUCCUAUUUUCUAUCCCCCUUAAAGAAAAUUGCAUGAAACCCGGCUUCUGUAAUCAAUCAACAGAGGAUUGAGCAUCA
# B8: ENSG00000159842:stop:overlap|stop_codon|ENSG00000159842|stop_codon|NA|stop_codon (ssRNA)
# RNA: GGGAGUUCUACAGUCCGACGAUCACCCCCCCAUUUCCUUCGCAGAACUCAAGCGGAACACACUGUACUUCUCCACCGACGUGUAGCCCGAGGCAGGGUGGCUGCGGGCGGGUGGUGGAACCAGCCCCUCCAGCCUGGGGUCCACAACAGAGGAUUGAGCAUCA
# B9: chr4:169989555:169989656:-|3pUTR|ENSG00000198948|unk|total|mutant (ssRNA)
# RNA: GGGAGUUCUACAGUCCGACGAUCUUGGACAACUCCCUUCCUCUCUCUGGGAUUUAAUCUUUUUCAUCUGUAAAAUAUGCAGGCCGUACUCGAGGGUCUACAGGAUCCCUUCCCGUUGAAACAUUUACCGUUCACAGAAAGUUUCAACAGAGGAUUGAGCAUCA
# B10: chr12:122133860:122133961:+|CDS|ENSG00000175727|msi1|total|mutant (ssRNA)
# RNA: GGGAGUUCUACAGUCCGACGAUCUUUUGUGCACCCCAAACCUGUAUCCUUGACUGGGGGCAGGCCUAAGCAGCCCCACAAAACCGUGCCUGCUCCCAAACCAGAGCCCGUGUCCUUGGUGUUGAAGAAUGCCCGUAUCGCCCCCAACAGAGGAUUGAGCAUCA
# B11: chr14:39032579:39032680:-|3pUTR|ENSG00000100934|msi1|FALSE|bound_elsewhere (ssRNA)
# RNA: GGGAGUUCUACAGUCCGACGAUCUGAUUUUAUAAUGGUAAUUUUCAUGAUGAUAAUGUUUUUGGUUAUUUGGAAAGAUAGUUUAGAGAUGAAAGGUUUUUUUGGGUAACAAUCCCGCAGCUGACAAAAAAUGUGAAAUUUCCACAACAGAGGAUUGAGCAUCA
# B12: ENSG00000070961:be:win_2801|CDS|ENSG00000070961|bound_else_gene|NA|bound_elsewhere_windowed (ssRNA)
# RNA: GGGAGUUCUACAGUCCGACGAUCGUCAUGCAUUCUAUCAACUUGUAGUAGUCUUUACACUCUUAUUUGCUGGAGAAAAGUUUUUUGACAUUGAUAGUGGAAGAAAUGCUCCUUUGCAUGCUCCUCCUUCAGAACAUUAUACUACAACAGAGGAUUGAGCAUCA
# B13: chr14:55043969:55044070:+|CDS|ENSG00000180008|unk|total|mutant (ssRNA)
# RNA: GGGAGUUCUACAGUCCGACGAUCUUUUUACUUCGAGACUCAGCACAGGAAGACUAUUUAUUCUCUGUCCGUUUCCGACGCUACCGUCGUUCUCUUCAUGCCCGAAUUGAACAGUGGAAUCACAACUUCCGCUUUGAUGCACAUCAACAGAGGAUUGAGCAUCA
# B14: chr8:93925380:93925481:+|3pUTR|ENSG00000164951|msi1|total|mutant (ssRNA)
# RNA: GGGAGUUCUACAGUCCGACGAUCAUUUAUUUCUAAAUGUUUUGACUGGGCAUUUUUCUUUUAAUGAAAUAUGUGGACUGCUCCCGCAAACCCUAUUUUCAGCUACUAUUUGAAUAUUCUUGAACACCACCACUGAAGAGUUUCCAACAGAGGAUUGAGCAUCA
# B15: ENSG00000124006:stop:overlap|stop_codon|ENSG00000124006|stop_codon|NA|stop_codon (ssRNA)
# RNA: GGGAGUUCUACAGUCCGACGAUCCGAAGACCCGGCGGCUCUGGUCCCGCUUCCCCCCAUGGCGACGAACAGCUGGCACUGAGUAGCAGCUGCCCCCAUAGUUUGGGGCCCACAUUCCUCUGUCCCACCUCCCUGCCAUUGCUUCAACAGAGGAUUGAGCAUCA
# B16: ENSG00000138660:stop:overlap|stop_codon|ENSG00000138660|stop_codon|NA|stop_codon (ssRNA)
# RNA: GGGAGUUCUACAGUCCGACGAUCCUGUAUUAGAACUGUCUGAUUCUGGCAUAAGGCAUUCUGACACAGAUCAACAGACUCGAUAGGGUAAAAUUGUGUGACCUUGUUUAUCAGUUAUGACCAAAUGUUAAAAACCAACUAGAACAACAGAGGAUUGAGCAUCA
# B17: chr8:11323570:11323671:+|3pUTR|ENSG00000104643|unk|total|mutant (ssRNA)
# RNA: GGGAGUUCUACAGUCCGACGAUCGAGCAUACAUAUACAAUGUGUUUCAAAUGCUGCUUGUAAAAUUAAACCAUCAUCCCGAACCGAGUUAAUUUAUUAUAAUCAAGCUACAAACCGGUUUUCUUAAACCAGAGAUGCACUGCCCAACAGAGGAUUGAGCAUCA
# B18: chr20:18487131:18487232:-|3pUTR|ENSG00000089050|msi1|FALSE|unique (ssRNA)
# RNA: GGGAGUUCUACAGUCCGACGAUCAAAUAUAGUAACCAGUAACCACAGCUAGCUGUAAAAUUGAAAAUUCAGUUCAGUCAAACUAGCCAUAUUUCAAGUGCUCAACAGCCACUGGUGGCUAUUGGUUACCUUACUGACCAGCCACAACAGAGGAUUGAGCAUCA
# B19: chr17:31995613:31995700:+|CDS|ENSG00000178691|msi1_unk|total|mutant (ssRNA)
# RNA: GGGAGUUCUACAGUCCGACGAUCAGCAUGUCUGAAUUUCUUGAAUCUGAAGAUGGGGAAGCCGAACAGCAAAGAACAUACCGCCGUGGCCACAAUCGUCUGUAUUUCCACCGUGAUACCUGCUUACCUCUCCGUCCACAAGAACAACAGAGGAUUGAGCAUCA
# B20: chr5:173232108:173232568:-|three_prime_utr|ENSG00000183072|control|control|control (ssRNA)
# RNA: GGGAGUUCUACAGUCCGACGAUCAAGGGGCUCCCAACAUGACCCUGAGUCCCCUGGAUUUUGCAUUCACUCCUGCGGAGACCUAGGAACUUUUUCUGUCCCACGCGCGUUUGUUCUUGCGCACGGGAGAGUUUGUGGCGGCGACAACAGAGGAUUGAGCAUCA
# B21: chrX:14865087:14865190:-|CDS|ENSG00000181544|unk|FALSE|unique (ssRNA)
# RNA: GGGAGUUCUACAGUCCGACGAUCAUAUUUUUUACUAAUCCUUCACAGUACUAAUAAAUUUGAAAUGCGUUUGAGUUUUAAACUAGGCUAUGAGAUGAAGGAUGGCCUAAGGGUCCUUAAUGGCCCUUUAAUUUUAUGGAGGCACAACAGAGGAUUGAGCAUCA
# B22: ENSG00000107863:be:win_3201|CDS|ENSG00000107863|bound_else_gene|NA|bound_elsewhere_windowed (ssRNA)
# RNA: GGGAGUUCUACAGUCCGACGAUCAGCAGAACAGUUGCCAAAAACACCUCGCCAGAGUCUCAGCAUCAGGCAAACUUUGCUUGGUGCUAAAUCAGAGCCAAAGACUCAAAGCCCACACUCUCCGAAGGAAGAGUCGGAAAGGAACAACAGAGGAUUGAGCAUCA
# Molecular target: T1, UNK ZnF1-6 (called full-length)
# Assay: nsRBNS (natural sequence RNA bind-n-seq); RBNS binding buffer (assumed for nsRBNS): 25 mM Tris pH 7.5, 150 mM KCl, 3 mM MgCl2, 0.01% Triton X-100, 500 ug/ml BSA, 20 U/ml SUPERase-In, 4 C; UNK is unkempt and MSI1 is Musashi-1; names of the RNAs are library labels; protein concentration not given here; high values mean tight binding
row,Binder,binding signal [enrichment R]
1,B1,0.751
2,B2,0.72
3,B3,0.885
4,B4,0.805
5,B5,0.779
6,B6,0.379
7,B7,0.291
8,B8,0.667
9,B9,0.809
10,B10,0.525
11,B11,0.608
12,B12,0.672
13,B13,0.31
14,B14,0.657
15,B15,0.635
16,B16,0.713
17,B17,0.442
18,B18,0.375
19,B19,0.598
20,B20,0.904
21,B21,0.49
22,B22,0.477
